Measurements reported in PMC4558169.
Results are given in words; binding and its absence hold for the method and conditions named. For some of these results: Binding seen in cells or lysates may run through a third protein. Some results given as binding are weak or reduced against the parent protein; the word gives no strength. For some of these results: Where a sequence is shown, tags or fusion partners need not be part of it.

Protein sequences, listed by entry. Tags and fused reporters are not part of them. Lines headed by an entry give the natural chain unless they say otherwise; changes in a name come on top. Chains listed by the source or under a name are the forms on record and can include a tag or linker. Residues count along the entry.
UniProt P13861: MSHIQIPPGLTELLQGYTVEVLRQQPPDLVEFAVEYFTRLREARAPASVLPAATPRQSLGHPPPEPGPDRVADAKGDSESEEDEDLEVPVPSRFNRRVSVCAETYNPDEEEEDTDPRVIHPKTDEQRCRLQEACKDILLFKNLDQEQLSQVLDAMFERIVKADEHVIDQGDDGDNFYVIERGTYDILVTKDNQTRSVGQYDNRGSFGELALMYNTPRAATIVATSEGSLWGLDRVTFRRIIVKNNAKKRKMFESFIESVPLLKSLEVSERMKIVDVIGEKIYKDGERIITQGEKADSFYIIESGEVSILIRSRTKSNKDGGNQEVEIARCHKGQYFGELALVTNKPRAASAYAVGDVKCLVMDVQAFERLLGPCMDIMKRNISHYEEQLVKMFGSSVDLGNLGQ
Ha-tagged D/D domain (Aa1-45) of PKA-RIIα: residues 1-45 of P13861
Ha-tagged PKA-RIIα D/D domain deletion mutant (Δ1-45): residues 46-404 of P13861

Assays:
[1] = target: T1, endogenous 14-3-3θ (human (endogenous in HEK293T)) (UniProt P27348); assay: co-IP; endogenous proteins of HEK293T lysates, immunoprecipitated with an antibody against one protein and blotted for the other
T1 sequence: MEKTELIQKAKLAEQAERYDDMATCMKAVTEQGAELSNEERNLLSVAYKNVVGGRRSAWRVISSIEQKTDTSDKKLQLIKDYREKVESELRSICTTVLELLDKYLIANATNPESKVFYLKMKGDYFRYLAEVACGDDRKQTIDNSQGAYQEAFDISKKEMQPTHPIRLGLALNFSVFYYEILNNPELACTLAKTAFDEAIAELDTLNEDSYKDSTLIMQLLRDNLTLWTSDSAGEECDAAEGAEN

[2] = target: endogenous PKA-RIIα (human (endogenous in HEK293T)) (UniProt P13861); assay: as above
[3] = target: His-tagged fusion protein of PKA-RIIα, purified (human) (UniProt P13861); assay: ELISA; 2 ug purified PKA-RIIα coated overnight at 4°C, blocked with 3% BSA in PBST; purified RAI16 alone or with sHt31 or sYF, 1 h at 37°C; detected with anti-RAI16 antibody, HRP anti-rabbit IgG and TMB; both purified
[4] = target: endogenous RAI16 (human (endogenous in HEK293T)) (UniProt Q86V87); assay: co-IP; endogenous proteins of HEK293T lysates, immunoprecipitated with an antibody against one protein and blotted for the other
[5] = target: Ha-tagged D/D domain (Aa1-45) of PKA-RIIα (human) (UniProt P13861); assay: co-IP; two tagged proteins (Flag, Ha, His or Myc) co-expressed in HEK293T cells; lysates immunoprecipitated with an anti-tag antibody, partner detected by immunoblot with the other anti-tag antibody; in Figure 4E cells untreated, treated 10 min with forskolin or with forskolin + PKImyr
[6] = target: T2, Myc-tagged 14-3-3θ fragment 81-160 (human) (UniProt P27348); assay: as above
T2 sequence: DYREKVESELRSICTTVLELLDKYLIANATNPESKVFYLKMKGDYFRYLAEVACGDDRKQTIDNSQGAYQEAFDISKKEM

[7] = target: Ha-tagged PKA-RIIα D/D domain deletion mutant (Δ1-45) (human) (UniProt P13861); assay: as above
[8] = target: Ha-tagged PKA-RIIα (type II regulatory subunit of PKA), full length (human) (UniProt P13861); assay: as above
[9] = target: T3, Myc-tagged 14-3-3θ, full length (human) (UniProt P27348); assay: as above
T3 sequence: T1 sequence

[10] = target: Flag-tagged retinoic acid induced 16 (RAI16), full length (UniProt Q86V87); assay: as above
[11] = target: T4, Flag-tagged RAI16 Aa352-370 deletion mutant (Δ352-370) (UniProt Q86V87); assay: as above
T4 sequence: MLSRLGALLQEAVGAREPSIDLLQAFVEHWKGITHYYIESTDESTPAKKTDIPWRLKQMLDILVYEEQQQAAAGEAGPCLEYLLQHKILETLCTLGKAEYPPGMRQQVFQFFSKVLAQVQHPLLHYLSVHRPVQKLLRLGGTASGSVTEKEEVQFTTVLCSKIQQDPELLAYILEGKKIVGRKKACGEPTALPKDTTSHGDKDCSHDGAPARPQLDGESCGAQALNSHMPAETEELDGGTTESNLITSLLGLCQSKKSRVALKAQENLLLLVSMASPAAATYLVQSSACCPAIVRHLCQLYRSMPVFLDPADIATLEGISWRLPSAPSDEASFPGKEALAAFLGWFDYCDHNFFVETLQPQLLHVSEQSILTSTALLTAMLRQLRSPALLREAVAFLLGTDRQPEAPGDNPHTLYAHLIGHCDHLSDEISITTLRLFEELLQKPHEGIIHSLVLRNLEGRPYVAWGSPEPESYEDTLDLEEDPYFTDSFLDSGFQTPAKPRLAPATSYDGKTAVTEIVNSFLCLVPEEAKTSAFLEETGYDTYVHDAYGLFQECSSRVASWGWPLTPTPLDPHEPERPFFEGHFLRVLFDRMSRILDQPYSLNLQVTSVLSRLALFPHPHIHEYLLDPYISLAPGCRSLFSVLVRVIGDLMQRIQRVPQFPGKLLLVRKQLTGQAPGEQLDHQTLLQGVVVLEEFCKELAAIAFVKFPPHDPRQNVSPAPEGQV

[12] = target: T5, Flag-tagged RAI16 fragment 251-500 (UniProt Q86V87); assay: as above
T5 sequence: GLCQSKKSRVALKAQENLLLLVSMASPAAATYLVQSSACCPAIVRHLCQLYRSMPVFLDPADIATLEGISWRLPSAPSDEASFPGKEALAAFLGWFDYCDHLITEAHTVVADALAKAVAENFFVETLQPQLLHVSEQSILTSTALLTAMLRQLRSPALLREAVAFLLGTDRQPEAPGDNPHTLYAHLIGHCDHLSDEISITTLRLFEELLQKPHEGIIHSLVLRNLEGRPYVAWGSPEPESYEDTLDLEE

[13] = target: Flag-tagged retinoic acid induced 16 (RAI16), full length (UniProt Q86V87); assay: co-IP; Flag-tagged RAI16 and Ha-tagged PKA-RIIα co-expressed in HEK293T cells, lysates immunoprecipitated, without or with peptide sHt31 or sYF (not told whether added to cells or lysate)

With “endogenous RAI16 (from UniProt Q86V87 1-743)” the binding [1] was “binds” and the binding [2] was “binds”.

“His-tagged fusion protein of RAI16, purified (from UniProt Q86V87 1-743)” was tested, and the binding [3] was “binds”.

With “endogenous PKA-RIIα (from UniProt P13861-1 1-404)” the binding [4] was “binds”.

“Flag-tagged retinoic acid induced 16 (RAI16), full length (from UniProt Q86V87 1-743)” was tested, and the binding [5] was “binds”, the binding [6] was “binds” and the binding [7] was “no binding”. The binding [8] was “binds” and the binding [9] was “binds”.

With “Ha-tagged PKA-RIIα (type II regulatory subunit of PKA), full length (from UniProt P13861-1 1-404)” the binding [10] was “binds”, the binding [11] was “no binding” and the binding [12] was “binds”. For the same substance, the binding [13] was “binds”.
